According to a collection of fitness landscapes (doi:10.1016/j.celrep.2020.107928):
In all, about 81,000 sequences were measured (“one-hybrid fitness for binding parS DNA”: median about -0.17, highest 2% from about 0.51 on). This is one part of the list.

B1: Caulobacter ParB omega fusion; a variant is named by its letters at X, in order, B8GW30 (parent)
chain: MESVVVGEPGMSEGRRGLGRGLSALLGEVDAAPAQAPGEQLGGSREAPIEILQRNPDQPRRTFREEDLEDLSNSIREKGVLQPILVRPSPDTAGEYQIVAGERAWRAAQRAGLKTVPIMVRELDDLAVLEIGIIENVQRADLNVLEEALSYKVLMEKFERTQENIAQTIGKSXSHVANXMRLLXLPDEVQSYLVSGELTAXHARAIAAAADPVALAKQIIEGGLSVRETEALARKAPNLSAGKSKGGRPPRVKDTDTQALESDLSSVLGLDVSIDHRGSTGTLTITYATLEQLDDLCNRLTRGI

Variants of: B1
Assay: one-hybrid fitness for binding parS DNA (scaled: cognate 1, non-cognate 0); higher = stronger binding
Settings: with parS DNA site
Summary of the method: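 On M9-minus-histidine containing 0.1 mM IPTG and 5 mM 3-AT, E. coli USO cells with a HIS3 reporter, site 19 bp from the promoter, grew 48 hours at 37°C to select Caulobacter ParB libraries randomised at four specificity codons. Plasmids from before and after were Illumina-sequenced, with three replicate libraries pooled and variants under 10 reads left out. Fitness is the log change in variant-to-wild-type read ratio, rescaled against cognate and non-cognate.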

Variant | one-hybrid fitness for binding parS DNA
ASIT | ≤ 0.2
VRLE | ≤ 0.2
NRGE | ≤ 0.2
DHKN | ≤ 0.2
KELL | ≤ 0.2
LQTF | ≤ 0.2
QILD | ≤ 0.2
HHER | ≤ 0.2
PMLI | ≤ 0.2
AVMV | ≤ 0.2
ILMG | ≤ 0.2
FCES | ≤ 0.2
RKRA | 0.774
AFNL | ≤ 0.2
RNQR | ≤ 0.2
DLMR | ≤ 0.2
DYTL | ≤ 0.2
LTYE | ≤ 0.2
SWPT | ≤ 0.2
LLKF | ≤ 0.2
RETN | ≤ 0.2
DNIR | ≤ 0.2
HEWM | ≤ 0.2
RYRD | ≤ 0.2
AHQR | ≤ 0.2
VDYK | ≤ 0.2

Variant | one-hybrid fitness for binding parS DNA
CCLT | ≤ 0.2
GLLP | ≤ 0.2
PQSE | ≤ 0.2
VTMN | 0.206
QAPN | ≤ 0.2
DKYT | ≤ 0.2
RQWS | 0.959
AYNC | ≤ 0.2
PNTI | ≤ 0.2
EVPG | ≤ 0.2
RINA | 0.596
DACC | ≤ 0.2
EPLS | ≤ 0.2
SGRG | ≤ 0.2
KFRG | ≤ 0.2
VFRC | ≤ 0.2
LPRR | ≤ 0.2
ERER | ≤ 0.2
YNTA | ≤ 0.2
PSYC | ≤ 0.2
RTNP | ≤ 0.2
ANQV | ≤ 0.2
NTTC | ≤ 0.2
CSNS | ≤ 0.2
PLWC | ≤ 0.2
EDPE | ≤ 0.2

Variant | one-hybrid fitness for binding parS DNA
ISNT | ≤ 0.2
TYAP | ≤ 0.2
RPPF | ≤ 0.2
WESH | ≤ 0.2
PYQC | ≤ 0.2
VLQR | ≤ 0.2
CIHR | ≤ 0.2
PLTM | ≤ 0.2
KIKL | ≤ 0.2
TKML | ≤ 0.2
SMVG | ≤ 0.2
VMPT | ≤ 0.2
NQGR | ≤ 0.2
TTMY | ≤ 0.2
SAWT | ≤ 0.2
MRRI | ≤ 0.2
YVKR | ≤ 0.2
PSIW | ≤ 0.2
TYNI | ≤ 0.2
PPAK | ≤ 0.2
HMGS | ≤ 0.2
SHDG | ≤ 0.2
SPMR | ≤ 0.2
SALW | ≤ 0.2
CMPT | ≤ 0.2
EAWR | ≤ 0.2

Variant | one-hybrid fitness for binding parS DNA
MVSG | ≤ 0.2
VSWC | ≤ 0.2
QLWI | ≤ 0.2
KIQC | ≤ 0.2
RCRA | 0.796
CWYT | ≤ 0.2
LCTT | ≤ 0.2
ISQK | ≤ 0.2
CLCS | ≤ 0.2
TYVF | ≤ 0.2
VHQS | ≤ 0.2
RTHL | ≤ 0.2
LAYN | ≤ 0.2
KRHQ | ≤ 0.2
CFKR | ≤ 0.2
SASM | ≤ 0.2
TVCY | ≤ 0.2
YWDG | ≤ 0.2
TAQW | ≤ 0.2
VYPR | ≤ 0.2
RRGM | 0.391
LRTH | ≤ 0.2
AHVG | ≤ 0.2
QYGN | ≤ 0.2
QTNF | ≤ 0.2
SGHL | ≤ 0.2

Variant | one-hybrid fitness for binding parS DNA
MDSR | ≤ 0.2
NIWG | ≤ 0.2
CLLR | ≤ 0.2
ECWS | ≤ 0.2
FADC | ≤ 0.2
IKTS | ≤ 0.2
SYPG | ≤ 0.2
TLQY | ≤ 0.2
SHLT | ≤ 0.2
ICSV | ≤ 0.2
SDEV | ≤ 0.2
MYTS | ≤ 0.2
YVIY | ≤ 0.2
LADA | ≤ 0.2
PSEY | ≤ 0.2
YACA | ≤ 0.2
SPFK | ≤ 0.2
SCSQ | ≤ 0.2
DPMG | ≤ 0.2
ERPN | ≤ 0.2
RKRV | ≤ 0.2
QIGF | ≤ 0.2
YKER | ≤ 0.2
LSQF | ≤ 0.2
RTWQ | ≤ 0.2
AALG | ≤ 0.2

Variant | one-hybrid fitness for binding parS DNA
RHIC | 0.651
FPPR | ≤ 0.2
RMWT | 0.904
NLKC | ≤ 0.2
GGHR | ≤ 0.2
QANI | ≤ 0.2
QKPA | ≤ 0.2
TCMT | ≤ 0.2
RWVW | ≤ 0.2
PCNT | ≤ 0.2
IQQN | ≤ 0.2
PSSN | ≤ 0.2
WYFT | ≤ 0.2
WDVL | ≤ 0.2
VEFG | ≤ 0.2
YYKS | ≤ 0.2
WSQV | ≤ 0.2
DIEN | ≤ 0.2
HRKY | ≤ 0.2
SSPD | ≤ 0.2
KAHQ | ≤ 0.2
PFPY | ≤ 0.2
NLNF | ≤ 0.2
